The whole screen tested about 310,000 compounds, of which about 2,200 (0.71%) showed an effect of 50% or more. The effect is printed as a negative number. The list shows a part of the results.

Chain of human ether-à-go-go-related gene (hERG) potassium channel (Q12809 whole entry, looked up): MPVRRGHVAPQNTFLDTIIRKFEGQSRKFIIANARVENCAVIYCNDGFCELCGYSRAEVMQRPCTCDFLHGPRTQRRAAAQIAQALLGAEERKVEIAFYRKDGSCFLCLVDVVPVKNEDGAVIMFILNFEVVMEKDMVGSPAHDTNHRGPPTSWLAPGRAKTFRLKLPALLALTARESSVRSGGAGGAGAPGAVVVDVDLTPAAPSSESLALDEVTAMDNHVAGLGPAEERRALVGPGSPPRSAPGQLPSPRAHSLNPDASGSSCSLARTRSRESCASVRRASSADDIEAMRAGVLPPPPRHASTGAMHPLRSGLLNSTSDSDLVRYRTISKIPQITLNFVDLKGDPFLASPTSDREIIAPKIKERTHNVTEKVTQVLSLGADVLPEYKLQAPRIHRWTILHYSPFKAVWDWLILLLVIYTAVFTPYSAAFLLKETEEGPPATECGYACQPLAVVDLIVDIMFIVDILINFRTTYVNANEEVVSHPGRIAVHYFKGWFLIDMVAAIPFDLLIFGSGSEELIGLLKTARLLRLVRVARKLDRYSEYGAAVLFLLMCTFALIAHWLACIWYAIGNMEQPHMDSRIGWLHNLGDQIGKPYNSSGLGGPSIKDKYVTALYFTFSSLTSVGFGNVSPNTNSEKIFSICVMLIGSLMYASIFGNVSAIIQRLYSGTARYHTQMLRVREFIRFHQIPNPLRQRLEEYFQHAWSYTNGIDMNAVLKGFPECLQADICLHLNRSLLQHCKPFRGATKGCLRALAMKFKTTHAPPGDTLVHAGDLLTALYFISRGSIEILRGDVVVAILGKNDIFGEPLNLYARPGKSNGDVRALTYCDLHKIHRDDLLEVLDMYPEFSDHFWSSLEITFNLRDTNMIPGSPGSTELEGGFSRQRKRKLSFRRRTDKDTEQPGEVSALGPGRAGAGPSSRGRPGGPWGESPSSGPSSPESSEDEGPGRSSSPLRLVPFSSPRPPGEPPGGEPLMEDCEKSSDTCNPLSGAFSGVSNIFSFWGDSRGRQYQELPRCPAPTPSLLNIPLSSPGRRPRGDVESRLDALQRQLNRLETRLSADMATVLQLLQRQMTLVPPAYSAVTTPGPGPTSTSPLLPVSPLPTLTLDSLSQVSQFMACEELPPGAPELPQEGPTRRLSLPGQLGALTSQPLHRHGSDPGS

The test addresses human ether-à-go-go-related gene (hERG) potassium channel (human, UniProt Q12809). Put plainly: primary screen, population patch clamp on CHO cells stably expressing hERG.
Take `COc1ccc(N(C)C(=O)c2cc3c(s2)-c2ccc(Cl)cc2S(=O)(=O)C3)c(OC)c1`: the “hERG current change (%, negative = inhibition) at 1uM” value was -7.04%.
Turning to `CC1=Nc2ccccc2/C1=C/c1sc(=O)n(CC(=O)N2CCCC2)c1O`, the “hERG current change (%, negative = inhibition) at 1uM” value came out at 10.3%.
To `COc1ccc(N2CC(C(=O)Nc3ccc(S(=O)(=O)N4CCOCC4)cc3)CC2=O)cc1` (stereo not drawn) belongs 11.9%; to `COc1ccccc1CNC(=O)CN(c1cccc([N+](=O)[O-])c1)S(C)(=O)=O`, 7.52%; to `O=C(NCCS(=O)(=O)N1CCN(c2ccc(F)cc2)CC1)C1CC(=O)N(c2ccccc2)C1` (stereo not drawn), 3.21%.
To `CCOC(=O)CNC(=O)CCCCCC(=O)NCC(=O)OCC` belongs 14.6%; to `COc1ccc(C2C3C(=O)N(Cc4ccccc4)C(=O)C3ON2c2ccccc2)c(OC)c1OC` (stereo not drawn), 11.2%; to `Cc1cc(NC(=O)c2cc(-c3cccs3)on2)no1`, 1.68%.
Take `Cc1cnc(NC(=O)c2c(Cl)cnn2C)s1`: the “hERG current change (%, negative = inhibition) at 1uM” value was 11.2%.
To `COc1ccccc1C(=O)CSc1cccc[n+]1[O-]` belongs 8.11%.
To `O=C(NCSC1=NCCS1)c1ccccc1` belongs 7.18%; to `COc1ccccc1CNC(=O)C1Cc2cc(S(=O)(=O)N3CCCC3)ccc2N1C(C)=O` (stereo not drawn), 19%; to `O=C(COc1ccccc1)NCCSc1ccccc1`, 2.66%.
For `Cc1nc(Oc2ccccc2)c2oc3ccccc3c2n1`, the “hERG current change (%, negative = inhibition) at 1uM” value is listed as 12.7%.
To `COc1ccc(C2=NS(=O)(=O)N(C)C(C(=O)NC(C)c3ccccc3)=C2)cc1` (stereo not drawn) belongs -1.25%; to `O=C(Cc1c[nH]c2ccccc12)NCc1ccc2c(c1)OCO2`, 20%; to `COc1ccc(C(=O)Nn2c(SCC(=O)c3ccccc3)nc3ccccc3c2=O)cc1`, -14.8%.
To `CCN(CC)CCNC(=O)c1ccc(Cl)c(S(=O)(=O)N2CCCCCC2)c1.Cl` belongs -52.2%; to `CC(C)NC(=O)C(=O)Nc1cc2c3c(c1)CCC(=O)N3CCC2`, 11.5%.
To `CN(c1ccc(OCC(=O)OCC(=O)Nc2cccc([N+](=O)[O-])c2)cc1)S(=O)(=O)c1ccc(F)cc1` belongs 9.84%; to `CC(C)=CC(=O)OCC(=O)Nc1ccc(F)cc1Cl`, 5.58%.
Turning to `O=C(COc1ccc(/C=N/NC(=O)CSCc2ccc([N+](=O)[O-])cc2)cc1)NCc1ccco1`, the “hERG current change (%, negative = inhibition) at 1uM” value is given as -4.2%.
To `Cc1cccc(NC(=O)c2ccc(OCc3c(C)noc3C)cc2)c1` belongs 16.9%.
To `COc1ccc(/C=C/CN2CCN(CC(C)C)C(CCO)C2)cc1` (stereo not drawn) belongs -0.433%; to `CCC1(CC)NC(=O)N(CC(=O)OCC(=O)NC(=O)c2ccc(Cl)cc2)C1=O`, 7.69%.
To `COc1ccc(/C=N/NC(=O)c2cccc([N+](=O)[O-])c2)c2ccccc12` belongs 2.39%; to `Cc1c(Br)c(-c2n[nH]c(=S)n2Cc2ccco2)nn1C`, 8.41%; to `CCc1noc(N)c1C(=O)Nc1ccc(F)c(Cl)c1`, 10.9%.
Turning to `O=C(NC(=S)Nc1ccc(CN2CCOCC2)cc1)c1ccc(-c2cccc(Cl)c2)o1`, the “hERG current change (%, negative = inhibition) at 1uM” value came to 7.67%.
To `O=C(NCCc1ccncc1)C(F)(F)F` belongs 19.3%; to `COC(=O)c1cc(-c2ccc(OC)cc2F)nc2nc(SC)[nH]c(=O)c12`, 17.1%; to `COc1ccc(C(=O)NCCc2nnc3ccc(SCC(=O)N4CCCCC4)nn23)cc1`, 10.9%.
To `Cc1c(C(=O)N2CCCCC2)sc(NC(=O)C2CC2)c1C#N` belongs 9.9%.
To `CCCSc1nnc(NC(=O)CSc2nc3[nH]c(=O)cc(O)c3s2)s1` belongs 14.8%.
As to `O=C(CCSCCC(=O)NCc1cccs1)NCc1cccs1`, the “hERG current change (%, negative = inhibition) at 1uM” value came out at 11.4%.
To `Cc1csc(NC(=O)CSc2nnc(C)c(=O)n2N)n1` belongs 1.29%.
As for `COC(=O)c1ccc(N2C(=O)CC(SCC(=O)Nc3ccc(OC)cc3)C2=O)cc1` (stereo not drawn), the “hERG current change (%, negative = inhibition) at 1uM” value is 2.09%.
To `CC1CCN(S(=O)(=O)c2ccc(F)c(C(=O)O)c2)CC1` belongs 4.2%; to `O=C(CSc1nnc(Nc2ccccc2)s1)NN1C(=O)NC2(CCCCC2)C1=O`, 6.02%.
As for `CC1CN(c2ccc([N+](=O)[O-])c(NCCOc3ccc(Cl)cc3)c2)CC(C)N1` (stereo not drawn), the “hERG current change (%, negative = inhibition) at 1uM” value worked out at 3.04%.
To `Cc1cc(C)n(Cc2ccccc2)c(=O)c1S(=O)(=O)c1ccccc1` belongs 3.34%; to `CC(=O)N1CCN(C(=O)c2ccc(-n3c(C)ccc3C)cc2)CC1`, 1.49%; to `O=C(COC(=O)c1ccc(Cl)nc1)Nc1ncc(Cl)cc1Cl`, 15.8%.
To `O=C(COC(=O)c1n[nH]c(=O)c2ccccc12)NC1CCCCC1` belongs 8.64%; to `Cl.O=C(CCCN1CCOC(c2ccccc2)C1)c1ccc(F)cc1` (stereo not drawn), -45.7%; to `O=C(CSc1ncn[nH]1)NNC(=O)c1ccccc1`, -2.53%.
To `Cc1cccc(/C=N/NC(=O)Cc2cccs2)c1` belongs 12.3%; to `Cc1n[nH]c(=O)c2c(NC(=O)CSc3nn(-c4ccccc4)c(=S)s3)oc(C)c12`, 13.9%; to `O=C(NCCC1=CCCCC1)C1CCN(S(=O)(=O)c2cccs2)CC1`, -1.95%.
`O=C(OCC#CCSc1nc2ccccc2o1)c1ccco1`: the “hERG current change (%, negative = inhibition) at 1uM” value amounted to 4.36%.
As to `COC(C(=O)N/N=C(\C)c1ccc(C(C)(C)C)cc1)c1ccccc1` (stereo not drawn), the “hERG current change (%, negative = inhibition) at 1uM” value worked out at 12%.
To `COc1ccc(CCC(C)Nc2ccccc2F)cc1` (stereo not drawn) belongs 9.36%; to `Cc1cc(O)c(C(C)C)cc1N=Cc1ccccc1O`, 8.6%.
`CN1CCN(CCOc2ccc(-c3ccccc3)cc2)CC1.Cl`: the “hERG current change (%, negative = inhibition) at 1uM” value was found to be 3.27%.
To `CC1=C(C(=O)Nc2ccccc2F)C(c2cccs2)NC(=S)N1` (stereo not drawn) belongs -0.728%.
To `O=C(Nc1c2c(nn1-c1ccc(F)cc1)CS(=O)C2)c1ccc(Br)o1` (stereo not drawn) belongs 10.4%; to `COc1ccc(-c2nn3c(COc4ccccc4)nnc3s2)cc1OC`, 9.72%.

The record behind these values is publication PMC4336329 (PLoS ONE, 2015).
